# Measurements as given in paper PMC4336329 (PLoS ONE, 2015).
# Hit rate of the full screen: of about 310,000 compounds, about 2,200 (0.71%) showed an effect of 50% or more. Effects have a minus sign here. The list shows a part of the results.
# Biological target: human ether-à-go-go-related gene (hERG) potassium channel (human, UniProt Q12809)
# Assay: primary screen, population patch clamp on CHO cells stably expressing hERG
# human ether-à-go-go-related gene (hERG) potassium channel, sequence (Q12809 whole entry, looked up): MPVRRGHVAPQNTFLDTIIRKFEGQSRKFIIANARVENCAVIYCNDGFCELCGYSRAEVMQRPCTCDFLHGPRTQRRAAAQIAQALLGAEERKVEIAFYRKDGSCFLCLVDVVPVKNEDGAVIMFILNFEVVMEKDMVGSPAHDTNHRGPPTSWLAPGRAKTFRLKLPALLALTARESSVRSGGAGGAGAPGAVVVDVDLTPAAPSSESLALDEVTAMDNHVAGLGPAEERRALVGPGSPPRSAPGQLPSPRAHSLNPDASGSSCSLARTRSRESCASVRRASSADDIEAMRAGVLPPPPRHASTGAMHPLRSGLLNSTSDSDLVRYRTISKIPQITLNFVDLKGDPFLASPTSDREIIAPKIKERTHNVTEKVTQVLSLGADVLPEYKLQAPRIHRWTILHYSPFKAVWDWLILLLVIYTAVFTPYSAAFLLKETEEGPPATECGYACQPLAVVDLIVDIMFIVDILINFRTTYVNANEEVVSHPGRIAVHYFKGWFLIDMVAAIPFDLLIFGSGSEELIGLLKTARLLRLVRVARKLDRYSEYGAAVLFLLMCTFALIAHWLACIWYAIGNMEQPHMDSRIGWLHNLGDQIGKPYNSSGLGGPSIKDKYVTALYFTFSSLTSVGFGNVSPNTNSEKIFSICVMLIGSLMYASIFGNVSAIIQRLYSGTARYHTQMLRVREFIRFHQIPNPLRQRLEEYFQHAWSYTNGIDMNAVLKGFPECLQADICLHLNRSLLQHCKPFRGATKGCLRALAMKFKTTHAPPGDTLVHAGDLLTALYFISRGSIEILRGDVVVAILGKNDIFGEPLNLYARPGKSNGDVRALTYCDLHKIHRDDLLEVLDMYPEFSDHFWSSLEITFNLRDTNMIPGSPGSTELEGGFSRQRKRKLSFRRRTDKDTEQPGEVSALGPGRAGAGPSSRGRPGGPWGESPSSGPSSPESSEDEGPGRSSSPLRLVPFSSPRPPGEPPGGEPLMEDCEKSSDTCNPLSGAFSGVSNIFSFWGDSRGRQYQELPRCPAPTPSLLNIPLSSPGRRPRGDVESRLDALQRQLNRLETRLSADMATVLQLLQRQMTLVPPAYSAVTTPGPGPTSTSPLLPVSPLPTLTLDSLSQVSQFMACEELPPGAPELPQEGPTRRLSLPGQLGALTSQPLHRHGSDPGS
row,Compound,"hERG current change (%, negative = inhibition) at 1uM"
1,CCCn1nc(NC(=O)C(C)C)c2cc3cc(OC)ccc3nc21,9.61%
2,CCOc1ccc(NC(=O)CSc2nccn2C)cc1,3.49%
3,O=C(NCCF)C1Nc2ccc(OC(F)(F)F)cc2C2C=CCC12 (stereo not drawn),5.8%
4,Cc1ccc(C)c(-c2csc(N/N=C/c3ccco3)n2)c1,17.1%
5,COc1ccc(NC2CCCN(C(=O)C3(C)CCCCC3)C2)cc1 (stereo not drawn),12.8%
6,N#CC(c1nc2ccccc2nc1N1CCCC1)S(=O)(=O)c1ccccc1 (stereo not drawn),5.15%
7,Cc1cc(CNC(=O)COc2ccc(C#N)cc2)c2ccccc2n1,-21.7%
8,CC(C)(C)c1cc[n+](-c2[nH]c(=O)sc2/C=N/N=C(\[O-])c2cccnc2)cc1,19.9%
9,Oc1ccc(N2CCN(c3ncnc4sc5c(c34)CCC5)CC2)cc1,9.37%
10,Cc1ccc(OCCn2cnc3c(N)ncnc32)cc1,-5.58%
11,CC1(C)CC2(CC(c3ccccc3)Oc3cc(O)ccc32)NC(=O)N1 (stereo not drawn),10.8%
12,OCCCc1cn(CC2CCCCC2)nn1,5.63%
13,COCCCN1C(=O)C(O)=C(C(=O)c2ccco2)C1c1ccccc1 (stereo not drawn),19.1%
14,Cc1cc(S(=O)(=O)Nc2c(C)nn(C)c2C)c(Cl)cc1Cl,14.5%
15,CSCCC(Nc1nc2ccccc2s1)C(=O)O (stereo not drawn),1.87%
16,C/C(=N/NC(=O)CN(c1ccccc1)S(=O)(=O)c1ccccc1)c1ccccc1O,11.9%
17,COc1ccccc1NC(=O)CCN1C(=O)/C(=C\c2cc(OC)c(OC)c(OC)c2)SC1=S,14%
18,COc1ccc(Cc2nc3ccc(C(=O)NC(C)Cc4ncccc4C)cc3o2)cc1OC (stereo not drawn),10.2%
19,O=C(NCc1ccncc1)NC1CCCCC1,15.1%

row,Compound,"hERG current change (%, negative = inhibition) at 1uM"
1,Cc1c(NC(=O)C(C)Sc2ccc3ccccc3n2)c(=O)n(-c2ccccc2)n1C (stereo not drawn),5.02%
2,C=CCN1C(=O)CN=C1Nc1ccccc1,17.4%
3,COc1cc(NC(=O)COC(=O)c2cc(S(=O)(=O)N3CCCCC3)ccc2Cl)c(C)cc1[N+](=O)[O-],5.74%
4,COc1cc2c(cc1OC)C(c1ccccc1)NC(C)(C)C2.Cl (stereo not drawn),11.3%
5,CCSc1nnc(-c2cc(Br)ccc2NC(C)=O)c(=O)[nH]1,1.1%
6,CCNC(=S)Nc1cc(OCC)c(NC(=O)c2cccs2)cc1OCC,14%
7,CC(=O)N1CCN(C(=O)c2ccc(OC3CCN(CCc4ccccc4)CC3)cc2)CC1,14.6%
8,COc1ccccc1N1CC(C(=O)NCCC2=CCCCC2)CC1=O (stereo not drawn),6.21%
9,CCOC(=O)N(NC(=O)C(O)(c1ccccc1)c1ccccc1)c1ccccc1,5.1%
10,Cc1c(C(=O)Nc2ccc3c(c2)OCO3)sc2ncn(CC(=O)N3CC(C)CC(C)C3)c(=O)c12 (stereo not drawn),-10.2%
11,Cc1ccc2nc(Cl)c(CN(Cc3cccs3)C(=O)C3CC3)cc2c1,15.8%
12,Cc1ccc(O)c(CNc2cccc3cccnc23)c1,-4.05%
13,CC1CCC2(CC1)NC(=O)N(CC(=O)Nc1ccc3[nH]c(=O)[nH]c3c1)C2=O (stereo not drawn),5.93%
14,CN(C)CCSc1nnc2[nH]c3ccccc3c2n1.Cl,-1.53%
15,COc1ccc(CCN=Cc2ccccc2O)cc1OC,8.06%
16,Cc1ccc(C(C)C)c(OCC(O)CN2CCOCC2)c1 (stereo not drawn),11.8%
17,CC(=O)Nc1ccc(S(=O)(=O)Nc2ccc3c(c2)OCO3)cc1,15.1%
18,COc1ccc(C(=O)N/C(=C\c2ccccc2)C(=O)NCc2cccnc2)cc1,-16%
19,CCOC(=O)CSc1nnc(CSc2nc(C)cc(C)n2)n1Cc1ccco1,12.4%

row,Compound,"hERG current change (%, negative = inhibition) at 1uM"
1,NC1=NC(=O)/C(=C/c2cn(CCC(=O)O)nc2-c2ccc(Cl)cc2)S1,9.19%
2,COC(=O)C1=C(C)N(C)C(=O)NC1c1cc2c(cc1[N+](=O)[O-])OCO2 (stereo not drawn),5.41%
3,CCc1nnc(N/N=C/c2c(Cl)cccc2Cl)n1N,7.24%
4,COc1cc(C(CC(=O)Nc2ccccn2)N2Cc3ccccc3C2=O)cc(OC)c1OC (stereo not drawn),6.15%
5,CC1OC(NCCc2ccccc2)C(O)C(O)C1O (stereo not drawn),-1.88%
6,Cc1cc(C)c2nc(-c3ccccn3)cc(C(=O)Nn3cnnc3)c2c1,8.55%
7,Cc1ccccc1C(=O)NC(=S)Nc1ccc(S(=O)(=O)N2CCOCC2)cc1,-6.86%
8,Cc1ccc(-c2csc(N3CCN(S(=O)(=O)c4ccc5c(c4)NC(=O)CO5)CC3)n2)cc1,15.7%
9,CCCCCCC(O)(c1ccccc1)C(CN1CCOCC1)c1ccccc1.Cl (stereo not drawn),13.2%
10,Cc1ccc(C)n1NC(=O)c1ccccc1Cl,7.68%
11,N/C(=N\OC(=O)/C=C/c1ccccc1)c1ccc(Cl)cc1,2.94%
12,CCC(C(=O)NC(C)(C)C)N(C(=O)Cn1nnc(-c2cccs2)n1)c1cnc2ccccc2c1 (stereo not drawn),18.3%
13,Cc1nnc(C)n1/N=C/c1ccc(-c2ccccc2Cl)o1,3.88%
14,O=C1CCCc2nc(N3CCN(Cc4ccccc4)CC3)ncc21,11.8%
15,COc1ccc(CNC(=O)C(c2ccncc2)N(C(=O)Cc2cccs2)c2cccnc2)cc1 (stereo not drawn),5.37%
16,CCOC(=O)c1c(-c2ccccc2)oc2ccc(OC(C)=O)cc12,21.8%
17,Fc1ccccc1N1CCN(c2cnc3ccccc3n2)CC1,12.3%
18,CCC(c1nnc(SCC(=O)Nc2ccc(C(=O)N(C)C)cc2)n1Cc1ccccc1)N(C)C (stereo not drawn),5.24%
19,O=C(COC(=O)/C=C/c1cccc(Cl)c1)NC(=O)NCc1ccccc1,0.487%
